PubChem BioAssay AID504832 (National Center for Advancing Translational Sciences (NCATS), 2011)
Out of some 310,000 compounds screened, about 18,000 (5.8%) were called active. The inconclusive results got no clear call from the source; some entries with a clear call stand among them for comparison. Calls follow the shape of the dose curve; as a rule, active = well fitted inhibition curve with a large enough effect; inconclusive = small, poorly fitted or top-dose-only effect, or another doubt; inactive = no such curve, though single readings can be large or run the other way. Potencies of inconclusive entries are left out as doubtful fits.

Assay: Primary qHTS for delayed death inhibitors of the malarial parasite plastid, 48 hour incubation
Details: P. falciparum luciferase growth in erythrocytes; series mostly up to 28.7 µM
In short: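 Erythrocytes infected with P. falciparum carrying an integrated firefly luciferase reporter (2% hematocrit, 0.1% parasitemia final) were exposed to compounds in RPMI 1640 with 0.5% Albumax at 37 C, 5% CO2. Growth inhibition was scored as reduced luminescence.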
% is scaled to controls: 0 for no effect and ±100 for the full control effect; potency is read from the fitted curve at half-maximal effect; tags tell the direction and shape of the fitted curve.

Q: For CCCn1c(N)c(C(=O)CSc2ncc(C(F)(F)F)cc2Cl)c(=O)[nH]c1=O, which Potency is on record?
A: inconclusive [inhibitor, partial curve, poor fit]

Q: For O=C(N/N=C/c1ccc(Cl)c([N+](=O)[O-])c1)c1cc(-c2ccc3c4c(cccc24)CC3)n[nH]1, which Potency is on record?
A: inconclusive [inhibitor, single point]

Q: For CC1SCC(=O)N(CC(=O)Nc2ccc3c(c2)OCCO3)C1=O (centres undefined), which activity change, negative = inhibition is on record?
A: inactive: -33.2% [at 5.75 µM]

Q: For C=C(C)C1CC=C(C)/C(=N\NC(=O)CCc2ccccc2)C1 (centres undefined), which Potency is on record?
A: inconclusive [inhibitor, single point]

Q: For COc1ccc(/C=C2/SC(=O)N(CCNC(=O)C3CCCN3C(=O)c3cccs3)C2=O)cc1 (centres undefined), which Potency is on record?
A: inconclusive [inhibitor, single point]

Q: Which Potency does the source give for CC1=C(C(=O)OCC2CCCO2)C(c2ccccc2)C2=C(CC(C)(C)CC2=O)N1 (centres undefined) here?
A: inconclusive [inhibitor, single point]

Q: With N#Cc1ccc(-c2csc(NNC(=O)c3ccc(Br)cc3)n2)cc1 as the compound, how does the Potency read?
A: active: 1.65 µM

Q: Which Potency does the source give for CC(=O)c1ccc(N(C(=O)c2ccco2)C(C(=O)NC2CCCC2)c2ccc(N3CCOCC3)cc2)cc1 (centres undefined) here?
A: inconclusive [inhibitor, single point]

Q: For CC(C)n1c(SCC(=O)N2c3ccccc3Sc3ccccc32)nc2c1c(=O)n(C)c(=O)n2C, which Potency is on record?
A: inconclusive [inhibitor, partial curve, poor fit]

Q: Which Potency does the source give for CCOC(=S)SCC(=O)Nc1nccs1 here?
A: inconclusive [inhibitor, single point]

Q: For O=C(CCc1ccc(Oc2cc([N+](=O)[O-])cc([N+](=O)[O-])c2)cc1)N1CCCCCC1, which Potency is on record?
A: active: 7.38 µM

Q: With CCc1cc2c(CN3CCN(CC)CC3)cc(=O)oc2cc1O as the compound, how does the Potency read?
A: inconclusive [inhibitor, single point]

Q: Which Potency does the source give for C/C(=N\NC(=O)C1CCCC1)c1ccc(C(C)C)cc1 here?
A: inactive

Q: With Cc1c[nH]c2cccc(OCC(O)CNC(C)(C)C)c12 (centres undefined) as the compound, how does the Potency read?
A: inactive

Q: Which Potency does the source give for CCCOC(=O)c1[nH]c2c(c1C)C(=O)CC(c1ccc(OC)c(OC)c1)C2 (centres undefined) here?
A: inconclusive [inhibitor, single point]

Q: With O=C(c1csc2c1CCCC2)N1CCN(c2cccc(C(F)(F)F)c2)CC1 as the compound, how does the Potency read?
A: inconclusive [inhibitor, single point]

Q: Which Potency does the source give for COc1ccc(CN2CCN(Cc3c[nH]c4ccccc34)CC2)cc1 here?
A: inconclusive [inhibitor, partial curve, poor fit]

Q: Which Potency does the source give for Cc1cc(OCC(=O)N2C[C@H]3C[C@@H](C2)c2cccc(=O)n2C3)c2c(C)c(C)c(=O)oc2c1 here?
A: inactive

Q: With Cc1nc(C(=O)NC2CCCCC2)sc1C1(C)CC(c2cccc([N+](=O)[O-])c2)=NO1 (centres undefined) as the compound, how does the Potency read?
A: inconclusive [inhibitor, single point]

Q: With Cc1cc(OC(C)C(=O)NCC(O)c2ccccc2)c2c3c(c(=O)oc2c1)CCCC3 (centres undefined) as the compound, how does the Potency read?
A: inconclusive [inhibitor, partial curve, poor fit]

Q: With Cc1c(CN2CCC(CO)(CCOc3ccccc3)CC2)[nH]c2c(Cl)cccc12 as the compound, how does the Potency read?
A: inconclusive [inhibitor, single point]

Q: Which Potency does the source give for CCO[C@@H]1OC(C(=O)Nc2ccccc2)=C[C@H](c2csc3ccccc23)[C@H]1CCCO here?
A: active: 7.38 µM

Q: For O=C(Nc1ccc(F)cc1)N1CCOCC1, which Potency is on record?
A: inactive

Q: Which Potency does the source give for CCO[C@@H]1OC(C(=O)NC2CC2)=C[C@H](c2ccc(C(F)(F)F)cc2)[C@H]1CCCO here?
A: inactive

Q: With COCCn1c(-c2ccc(Cl)cc2)cnc1SCC(=O)NCc1cccs1 as the compound, how does the Potency read?
A: inconclusive [inhibitor, partial curve, poor fit]

Q: Which Potency does the source give for COc1ccc(C(=O)CCC(=O)NCCc2ccccc2F)cc1 here?
A: inactive

Q: Which Potency does the source give for Cc1ccc(NC(=O)CSc2nnc(CNC(=O)c3ccco3)n2C)cc1 here?
A: inactive

Q: Which Potency does the source give for O=C(CCC(=O)Nc1ccc(Cl)cc1)N/N=C/c1ccc2c(c1)OCO2 here?
A: inconclusive [inhibitor, single point]

Q: Which Potency does the source give for Cc1ccc(N(C)S(=O)(=O)c2cccc(C(=O)NCC(c3ccco3)N3CCCC3)c2)cc1 (centres undefined) here?
A: active: 9.28 µM

Q: With Cc1ccc([N+](=O)[O-])cc1NC(=O)CN(C(=O)c1ccc(Cl)cc1)C1CCCCC1 as the compound, how does the Potency read?
A: inconclusive [inhibitor, full curve, poor fit]

Q: For CCOc1ccc(NC(=O)CSc2nc(-c3cccs3)cc(C(F)(F)F)n2)c([N+](=O)[O-])c1, which Potency is on record?
A: inactive

Q: Which Potency does the source give for COc1cc2c(-c3ccc4cc[nH]c4c3)c(-c3ccsc3)oc(=O)c2cc1OC here?
A: inconclusive [inhibitor, single point]

Q: Which Potency does the source give for CCN(CCn1cccn1)C(=O)CCc1nnc(-c2ccccc2)o1 here?
A: inconclusive [inhibitor, single point]

Q: With Cc1c(C(=O)Nc2ccccc2N2CCN(C)CC2)oc2ccc(F)cc12 as the compound, how does the Potency read?
A: inconclusive [inhibitor, partial curve, poor fit]

Q: For Cc1cc(C(=O)CN2C(=O)C(=O)N(Cc3ccccc3)C2=O)c(C)n1-c1ccc2c(c1)OCCO2, which Potency is on record?
A: inconclusive [inhibitor, single point]

Q: Which Potency does the source give for N#Cc1c(C(F)(F)F)cc(-c2ccccc2)nc1SCc1nc(N)nc(N2CCOCC2)n1 here?
A: inconclusive [inhibitor, partial curve]

Q: With Cc1ccc(NC(=O)CSCC(=O)Nc2cccc3ncccc23)cc1 as the compound, how does the Potency read?
A: inconclusive [inhibitor, partial curve, poor fit]

Q: With COc1cc2c(cc1OC)C(C(=O)NCCC(C)C)C1CCCCN1C2=O (centres undefined) as the compound, how does the Potency read?
A: inactive

Q: With CN1C(=O)/C(=C\c2ccncc2)SC1=Nc1ccccc1 as the compound, how does the Potency read?
A: inconclusive [inhibitor, single point]

Q: For Cc1ccc(C)c(N2CCN(C(=O)COc3cc(=O)n(C)c4ccccc34)CC2)c1, which Potency is on record?
A: inconclusive [inhibitor, single point]

Q: With O=C(COc1ccccc1-c1ccccc1)N/N=C/c1cccc2ccccc12 as the compound, how does the Potency read?
A: inconclusive [inhibitor, single point]

Q: With CCc1nc(SCc2ccc(C(=O)OC)o2)c2c(=O)n(C)c(=O)n(C)c2n1 as the compound, how does the Potency read?
A: active: 8.28 µM

Q: Which Potency does the source give for CC1CCCN(c2nc(N(C)c3ccccc3)nc(N)c2[N+](=O)[O-])C1 (centres undefined) here?
A: inactive

Q: Which Potency does the source give for CC(=O)c1ccc(S(=O)(=O)Nc2ccc(C(=O)NCCCn3ccnc3)cc2)cc1 here?
A: inconclusive [inhibitor, single point]

Q: For Cc1cc2ccccc2cc(C)c1=O, which Potency is on record?
A: inconclusive [inhibitor, partial curve, poor fit]

Q: With Cc1ccc(C)c(N(C(=O)c2nsc(Cl)c2Cl)C(C(=O)NC2CCCC2)c2ccc(O)cc2)c1 (centres undefined) as the compound, how does the Potency read?
A: inconclusive [inhibitor, partial curve]

Q: For O=C(O)/C=C\C(=O)Nc1ccc(N2CCN(c3ccc(Cl)cc3)CC2)cc1, which Potency is on record?
A: inconclusive [inhibitor, partial curve, poor fit]

Q: With CCC(C(=O)NC(C)(C)C)N(C(=O)Cn1nnc(-c2ccccc2F)n1)c1cnc2ccccc2c1 (centres undefined) as the compound, how does the Potency read?
A: inconclusive [inhibitor, single point]

Q: For CCN1CC2=C(OC(N)=C(C#N)C2c2cccs2)/C(=C/c2cccs2)C1 (centres undefined), which Potency is on record?
A: active: 11.7 µM

Q: Which Potency does the source give for CN(C(=O)c1cc(Cl)c2c(c1)OCCO2)c1c(N)n(Cc2ccccc2)c(=O)[nH]c1=O here?
A: inconclusive [inhibitor, full curve, poor fit]

Q: For COC(=O)c1c(NC(=O)c2ccoc2C)sc2c1CCC2, which Potency is on record?
A: inactive

Q: With CCn1c2ccc(F)cc2c2nnc(NN)nc21 as the compound, how does the Potency read?
A: inconclusive [inhibitor, single point]

Q: For CCc1ccc(C(CC(=O)c2ccc(Cl)cc2)C(=O)O)cc1 (centres undefined), which Potency is on record?
A: inconclusive [inhibitor, single point]

Q: For O=C(Nc1ccccc1F)NC1CCCCCCC1, which Potency is on record?
A: inactive

Q: With COc1ccc(S(=O)(=O)NCc2ccc(C(=O)N3CCN(c4ccccn4)CC3)cc2)cc1 as the compound, how does the Potency read?
A: inconclusive [inhibitor, partial curve, poor fit]

Q: Which Potency does the source give for CCCN(CCC)c1ccc(/C=C/c2ccc3cc(OCC)ccc3n2)cc1 here?
A: inconclusive [inhibitor, single point]

Q: For O=C(CSc1n[nH]c(-c2ccccn2)n1)Nc1ccc(Cl)cc1, which Potency is on record?
A: inconclusive [inhibitor, single point]

Q: For Cc1ccc(O)c(C(=O)c2cnc3c(c2)c(=O)n(C)c(=O)n3C)c1, which Potency is on record?
A: inconclusive [inhibitor, partial curve, poor fit]

Q: With CCN1C(=O)[C@@H]2[C@@H](c3ccc(-c4ccc(C(C)=O)cc4)cc3)N3CCC[C@@]3(C(=O)OC)[C@@H]2C1=O as the compound, how does the Potency read?
A: active: 9.28 µM

Q: For Cc1cccc(NC(=O)CN2C(=O)S/C(=C\c3cc(C)n(C)c3C)C2=O)c1, which Potency is on record?
A: inconclusive [inhibitor, partial curve, poor fit]

Q: With CCCC(=O)C1=C(O)C(C(=O)OC)C(C)(C)CC1=Nc1cccc([N+](=O)[O-])c1 (centres undefined) as the compound, how does the Potency read?
A: inconclusive [inhibitor, partial curve]

Q: For Cc1cccc(N=C2NN=C(c3c[nH]c4ccccc34)CS2)c1, which Potency is on record?
A: inconclusive [inhibitor, single point]

Q: With O=C(Cc1csc(NC(=O)c2ccccc2)n1)NO as the compound, how does the Potency read?
A: inconclusive [inhibitor, partial curve, poor fit]

Q: For N#Cc1c(-c2ccco2)ccn(Cc2ccc(F)cc2)c1=O, which Potency is on record?
A: inconclusive [inhibitor, partial curve, poor fit]
